Inconclusive means that the source gave no clear call. Such entries were picked first, then a sample of the others. For part of these data: A potency beside an inconclusive call is a rough fit, not a confirmed value. The source made the active and inactive calls. Unless noted, the call rests on the fitted dose curve; in most records, active means well fitted inhibition curve with a large enough effect; inconclusive means small, poorly fitted or top-dose-only effect; inactive means no such curve, though single readings can be large or run the other way.
tested on: not listed separately; assay: NFAT Signaling Pathway (AID 444; active means well fitted curve in either direction with a large enough effect, not every such curve was filed as active; inconclusive means small, poorly fitted or top-dose-only effect, or another doubt;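 further: carbachol stimulus at about its EC50 of 1 µM final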); settings: Jurkat NFAT-bla M1, carbachol, beta-lactamase ratio, 5 h; at 17.2 µM (top of the series) unless noted
Outline: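 Read-out: CCF4 FRET ratio (460 nm/530 nm) after 1 h RT dye loading, used for %activity and AC50 from titration series. Cells: Jurkat NFAT-β-lactamase/M1 line, treated with compound plus 1 uM carbachol for 5 h, 37 °C.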
On the % scale 0 is the no-effect control and ±100 the full control effect; tags describe the fitted curve by direction and shape.

Compound | activity change, negative = inhibition
Cc1ccc(C(=N)c2ccccc2Cc2cccc3ccccc23)c2ccccc12 | inconclusive: -34.2% [inhibitor] [at 7.69 µM]
O=C1C2ON(c3ccccc3)C(c3cccnc3)C2C(=O)N1c1ccccc1 (stereo not drawn) | inactive: -5.72%
C=C1C[C@@]23C[C@]1(O)CC[C@@H]2[C@]12C=C[C@@H](O)[C@](C)(C(=O)O1)[C@H]2[C@H]3C(=O)O | inactive: -11.2%
CC(=O)O[C@]12CC[N@+]3(C)CCCC[C@@H]3[C-]1Nc1ccccc12 | inconclusive: -34.9% [inhibitor] [at 7.69 µM]
CC(=O)N1CCC2(CCCN(C(c3ccccc3)c3ccccc3)C2)CC1 | inactive: 28.1% [at 7.69 µM]
COn1c(SC2CCCCC2)nc2ccccc2c1=O | inactive: 7.75%
N#Cc1ccc(OC(=O)c2ccc(N=C(N)N)cc2)cc1 | inconclusive: -33.9% [inhibitor] [at 7.69 µM]
O[C@@H](COc1cccc2ccccc12)CN1CCOCC1 | inactive: 4.33% [at 7.69 µM]
O=C1[C@@H]2[C@@H](C(=O)N1c1ccc(OCc3ccccc3)cc1)[C@@H]1c3ccccc3[C@@H]2[n+]2ccccc21 | inconclusive: -73.5% [inhibitor] [at 7.69 µM]

target: Cytochrome P450 2D6 (Homo sapiens) (UniProt P10635); assay: qHTS Assay for Inhibitors and Substrates of Cytochrome P450 2D6 (AID 891); settings: recombinant CYP2D6, luciferin-ME EGE luminescence; activity change, negative = inhibition: at 57.1 µM (top of the series);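 further: luciferin methyl ether substrate demethylated by CYP2D6 with NADPH regeneration; nearly all actives have a fitted effect of over 60% in size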; further: potency means the concentration at half of the fitted maximal effect; on activity change, negative = inhibition: top concentration of the series differs between compounds
Sequence of UniProt P10635 (P10635 whole entry, looked up): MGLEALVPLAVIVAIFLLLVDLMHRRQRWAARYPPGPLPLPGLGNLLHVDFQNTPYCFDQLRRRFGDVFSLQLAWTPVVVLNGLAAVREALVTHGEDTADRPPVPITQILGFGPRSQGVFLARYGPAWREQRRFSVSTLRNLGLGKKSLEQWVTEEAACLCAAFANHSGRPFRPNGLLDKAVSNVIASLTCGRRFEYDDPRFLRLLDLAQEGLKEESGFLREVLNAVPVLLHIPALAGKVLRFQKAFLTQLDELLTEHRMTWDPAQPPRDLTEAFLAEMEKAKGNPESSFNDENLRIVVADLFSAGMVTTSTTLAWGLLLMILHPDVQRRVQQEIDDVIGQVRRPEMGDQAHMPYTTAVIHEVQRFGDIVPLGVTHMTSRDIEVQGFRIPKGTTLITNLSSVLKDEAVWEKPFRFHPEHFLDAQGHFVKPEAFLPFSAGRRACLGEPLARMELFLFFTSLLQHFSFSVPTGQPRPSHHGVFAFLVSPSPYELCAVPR
Outline: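 Luminescent read-out of luciferin formed by 5 nM human CYP2D6 demethylating 30 uM Luciferin-ME EGE (Km level) over 60 min at room temperature after NADPH regeneration addition. Data normalized to full inhibition by 1.43 uM quinidine.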

Compound | Potency | activity change, negative = inhibition
O[C@@H](c1cc(C(F)(F)F)nc2c(Cl)cc(Cl)cc12)[C@@H]1CCCCN1 | inconclusive: 3.16 µM [inhibitor, partial curve] | 
C[N+](C)(C)c1cc2c(nn1)Nc1ccccc1S2 | inconclusive: 3.98 µM [inhibitor, single point] | 
C[C@@]12CC[C@H]3[C@H](CC=C4C[C@@H](O)CC[C@@]43C)[C@@H]1CC[C@@H]2N(CCO)CCO | inconclusive: 3.98 µM [inhibitor, partial curve] | 
Cc1cc(Cc2cc(Cc3cc(C)cc(C(C)(C)C)c3O)c(C)cc2C)c(O)c(C(C)(C)C)c1 | inconclusive: 3.98 µM [inhibitor, partial curve] | 
CCN(CC)CC[n+]1ccc2c(C)c3[nH]c4ccccc4c3c(C)c2c1 | inconclusive: 3.16 µM [inhibitor, partial curve] | 
O=C(c1cnccn1)N1CCC2(CCCN(Cc3ccccc3)C2)CC1 | inconclusive: 7.94 µM [inhibitor, partial curve] | 
Cc1ncn(-c2ccccc2O)c1C | inconclusive: 3.16 µM [inhibitor, single point] | 
COc1ccccc1CN1CCCC2(CCN(C(=O)c3ccncc3)CC2)C1 | active: 3.16 µM | 
COc1ccccc1CN1CCCC2(CCN(C(C)=O)CC2)C1 | active: 3.16 µM | 
C[C@H](CN(C)C)C(O)(c1ccccc1)c1ccccc1 | inconclusive: 3.98 µM [inhibitor, partial curve] | 
O[C@H](COc1ccccc1)CN1CCCCC1 | inconclusive: 5.01 µM [inhibitor, partial curve] | 
c1ccc2sc(SCCSc3nc4ccccc4s3)nc2c1 |  | inactive: 29.9% [at 11.4 µM]
COc1ccccc1CN1CCCC2(CCN(C(=O)c3cccn3C)CC2)C1 | active: 3.16 µM | 
O[C@@H](c1cc([C@@]23C[C@H]4CC[C@@H]2C[C@H](C4)C3)nc2c(Cl)cc(Cl)cc12)[C@@H]1CCCCN1 | inconclusive: 3.16 µM [inhibitor, partial curve] | 
O=C(c1cnccn1)N1CCC2(CC1)CCN(C(c1ccccc1)c1ccccc1)CC2 | active: 3.98 µM | 
CN(C)Cc1cc(C(F)(F)F)ccc1C(O)(c1ccccc1)c1ccccc1 | inconclusive: 3.16 µM [inhibitor, single point] | 
C[N+](C)(CCCOc1ccccc1)c1ccccc1 | active: 0.0158 µM | 
CC1(C)N=C(N)N=C(N)N1c1cccc(OCc2cccc([N+](=O)[O-])c2)c1 | inconclusive: 3.16 µM [inhibitor, partial curve] | 
Cc1ccc(C2=C(Cl)C(=O)C(c3ccc(C)cc3)=C(Cl)C2=O)cc1 | inconclusive: 3.98 µM [inhibitor, partial curve] | 
Cc1ccc(C(=N)c2ccccc2Cc2cccc3ccccc23)c2ccccc12 | inconclusive: 2.51 µM [inhibitor, partial curve] | 
CC(=O)O[C@]12CC[N@+]3(C)CCCC[C@@H]3[C-]1Nc1ccccc12 | inconclusive: 3.16 µM [inhibitor, partial curve] | 
CC(=O)N1CCC2(CCCN(C(c3ccccc3)c3ccccc3)C2)CC1 | active: 7.94 µM | 
N#Cc1ccc(OC(=O)c2ccc(N=C(N)N)cc2)cc1 | inconclusive: 3.16 µM [inhibitor, partial curve] | 
O=C1[C@@H]2[C@@H](C(=O)N1c1ccc(OCc3ccccc3)cc1)[C@@H]1c3ccccc3[C@@H]2[n+]2ccccc21 | inconclusive: 3.98 µM [inhibitor, partial curve] | 

— PubChem BioAssay (NCATS)
